Some of the results follow. Sequences were assembled here from the parent chain. Values near 0.05 are background.

The source of these data is the supplement of paper PMC12217912.

The labels stand for the following.
B1: TEV protease; numbered along this chain (parent)
chain: MGESLFKGPRDYNPISSSICHLTNESDGHTTSLYGIGFGPFIITNKHLFRRNNGTLVVQSLHGVFKVKDTTTLQQHLVDGRDMIIIRMPKDFPPFPQKLKFREPQREERICLVTTNFQTKSMSSMVSDTSCTFPSGDGIFWKHWIQTKDGQCGSPLVSTRDGFIVGIHSASNFTNTNNYFTSVPKNFMELLTNQEAQQWVSGWRLNADSVLWGGHKVFMVKPEEPFQPVKEATQL

In the experiment the parent is B1. The experiment is described as follows: raw area under fraction-flipped curve 0-4 h after induction (AUC4h, not background-subtracted), DNA-recorder readout of cleavage of the substrate (dimensionless); higher = more cleavage of the substrate by the protease variant. Particulars: temperature: 34 °C; time window: 0-4 h after rhamnose induction. As for the experimental part: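 In vivo DNA recorder in E. coli TOP10(DE3) ΔrhaA at 34 °C. Each TEVp single-site mutant (parent TEVp 0) is paired with a single-site variant of the 7-mer TEVs (canonical ENLYFQ|S). The substrate sits between flexible linkers in a Bxb1-sfGFP-TEVs-SsrA fusion, so cleavage stabilises Bxb1 and speeds flipping of a recombination array, read by NGS. The value is the raw area under the fraction-flipped curve over 0-4 h after rhamnose induction (AUC4h), with ≥20 reads per time point. It is not background-subtracted; inactive controls average about 0.047.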
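Further: Bxb1 expression induced with 0.2% (w/v) L-rhamnose at OD600 near 0.5, cultures sampled hourly, flipped fraction per protease–substrate barcode pair counted by paired-end Illumina sequencing.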

For the variant MGESLFKGPRDYNPISSWICHLTNESDGHTTSLYGIGFGPFIITNKHLFRRNNGTLVVQSLHGVFKVKDTTTLQQHLVDGRDMIIIRMPKDFPPFPQKLKFREPQREERICLVTTNFQTKSMSSMVSDTSCTFPSGDGIFWKHWIQTKDGQCGSPLVSTRDGFIVGIHSASNFTNTNNYFTSVPKNFMELLTNQEAQQWVSGWRLNADSVLWGGHKVFMVKPEEPFQPVKEATQL [S18W], the “area with substrate ENAYFQS” value was found to be 0.0526, the “area with substrate ENCYFQS” value amounted to 0.0603, the “area with substrate ENDYFQS” value came to 0.053 and the “area with substrate ENEYFQS” value came to 0.0916. Besides, the “area with substrate ENFYFQS” value is 0.0617, the “area with substrate ENIYFQS” value is 0.0944, the “area with substrate ENNYFQS” value is 0.0655 and the “area with substrate ENPYFQS” value worked out at 0.0445. Further, the “area with substrate ENRYFQS” value came to 0.0617, the “area with substrate ENSYFQS” value amounted to 0.0646, the “area with substrate ENTYFQS” value stood at 0.0584 and the “area with substrate ENVYFQS” value amounted to 0.0644.

Consider MGESLFKGPRDGNPISSSICHLTNESDGHTTSLYGIGFGPFIITNKHLFRRNNGTLVVQSLHGVFKVKDTTTLQQHLVDGRDMIIIRMPKDFPPFPQKLKFREPQREERICLVTTNFQTKSMSSMVSDTSCTFPSGDGIFWKHWIQTKDGQCGSPLVSTRDGFIVGIHSASNFTNTNNYFTSVPKNFMELLTNQEAQQWVSGWRLNADSVLWGGHKVFMVKPEEPFQPVKEATQL [Y12G], for which the “area with substrate ENAYFQS” value worked out at 0.0618, the “area with substrate ENCYFQS” value worked out at 0.0663, the “area with substrate ENDYFQS” value worked out at 0.0662 and the “area with substrate ENEYFQS” value is 0.0544. Moreover, the “area with substrate ENFYFQS” value turned out to be 0.0662, the “area with substrate ENGYFQS” value amounted to 0.0609, the “area with substrate ENHYFQS” value came out at 0.0605 and the “area with substrate ENKYFQS” value came out at 0.0586. Also, the “area with substrate ENMYFQS” value turned out to be 0.0822, the “area with substrate ENNYFQS” value was found to be 0.0588, the “area with substrate ENQYFQS” value was 0.0591 and the “area with substrate ENRYFQS” value stood at 0.0516. In addition, the “area with substrate ENSYFQS” value is 0.0609, the “area with substrate ENTYFQS” value is 0.0671, the “area with substrate ENVYFQS” value stood at 0.0728 and the “area with substrate ENWYFQS” value was 0.0368.

On to MGESLFKGPRDYNDISSSICHLTNESDGHTTSLYGIGFGPFIITNKHLFRRNNGTLVVQSLHGVFKVKDTTTLQQHLVDGRDMIIIRMPKDFPPFPQKLKFREPQREERICLVTTNFQTKSMSSMVSDTSCTFPSGDGIFWKHWIQTKDGQCGSPLVSTRDGFIVGIHSASNFTNTNNYFTSVPKNFMELLTNQEAQQWVSGWRLNADSVLWGGHKVFMVKPEEPFQPVKEATQL [P14D], for which the “area with substrate ENAYFQS” value is 0.0743, the “area with substrate ENCYFQS” value is 0.071, the “area with substrate ENDYFQS” value is 0.0739 and the “area with substrate ENEYFQS” value came out at 0.065. Moreover, the “area with substrate ENFYFQS” value is 0.0332, the “area with substrate ENIYFQS” value came to 0.1, the “area with substrate ENKYFQS” value came to 0.0692 and the “area with substrate ENMYFQS” value amounted to 0.0694. The “area with substrate ENNYFQS” value is 0.0595, the “area with substrate ENQYFQS” value was 0.0694, the “area with substrate ENSYFQS” value was 0.0655 and the “area with substrate ENVYFQS” value came out at 0.093. In addition, the “area with substrate ENYYFQS” value amounted to 0.0722.

Regarding MGESLFKGPRDYNNISSSICHLTNESDGHTTSLYGIGFGPFIITNKHLFRRNNGTLVVQSLHGVFKVKDTTTLQQHLVDGRDMIIIRMPKDFPPFPQKLKFREPQREERICLVTTNFQTKSMSSMVSDTSCTFPSGDGIFWKHWIQTKDGQCGSPLVSTRDGFIVGIHSASNFTNTNNYFTSVPKNFMELLTNQEAQQWVSGWRLNADSVLWGGHKVFMVKPEEPFQPVKEATQL [P14N], the “area with substrate ENAYFQS” value was found to be 0.0664, the “area with substrate ENCYFQS” value was 0.0772, the “area with substrate ENDYFQS” value turned out to be 0.0737 and the “area with substrate ENGYFQS” value came out at 0.0526. Besides, the “area with substrate ENMYFQS” value was found to be 0.018, the “area with substrate ENPYFQS” value came out at 0.0535, the “area with substrate ENQYFQS” value is 0.0666 and the “area with substrate ENRYFQS” value was determined as 0.0681. The “area with substrate ENSYFQS” value was found to be 0.0541, the “area with substrate ENTYFQS” value is 0.0637 and the “area with substrate ENVYFQS” value was determined as 0.0681.

In the case of MGESLFKGPHDYNPISSSICHLTNESDGHTTSLYGIGFGPFIITNKHLFRRNNGTLVVQSLHGVFKVKDTTTLQQHLVDGRDMIIIRMPKDFPPFPQKLKFREPQREERICLVTTNFQTKSMSSMVSDTSCTFPSGDGIFWKHWIQTKDGQCGSPLVSTRDGFIVGIHSASNFTNTNNYFTSVPKNFMELLTNQEAQQWVSGWRLNADSVLWGGHKVFMVKPEEPFQPVKEATQL [R10H], the “area with substrate ENAYFQS” value was found to be 0.049, the “area with substrate ENDYFQS” value was 0.0549, the “area with substrate ENFYFQS” value turned out to be 0.0538 and the “area with substrate ENGYFQS” value turned out to be 0.0497. For the same variant, the “area with substrate ENHYFQS” value is 0.0592, the “area with substrate ENIYFQS” value amounted to 0.0837, the “area with substrate ENKYFQS” value stood at 0.0727 and the “area with substrate ENMYFQS” value came to 0.074. Besides, the “area with substrate ENPYFQS” value amounted to 0.0395, the “area with substrate ENQYFQS” value worked out at 0.0692, the “area with substrate ENRYFQS” value is 0.0719 and the “area with substrate ENSYFQS” value is 0.0587. Besides, the “area with substrate ENTYFQS” value is 0.0604 and the “area with substrate ENVYFQS” value amounted to 0.0776.

Regarding MGESLFKGPQDYNPISSSICHLTNESDGHTTSLYGIGFGPFIITNKHLFRRNNGTLVVQSLHGVFKVKDTTTLQQHLVDGRDMIIIRMPKDFPPFPQKLKFREPQREERICLVTTNFQTKSMSSMVSDTSCTFPSGDGIFWKHWIQTKDGQCGSPLVSTRDGFIVGIHSASNFTNTNNYFTSVPKNFMELLTNQEAQQWVSGWRLNADSVLWGGHKVFMVKPEEPFQPVKEATQL [R10Q], the “area with substrate ENAYFQS” value is 0.0534, the “area with substrate ENCYFQS” value amounted to 0.0682, the “area with substrate ENDYFQS” value was found to be 0.0547 and the “area with substrate ENEYFQS” value came out at 0.0605. Besides, the “area with substrate ENFYFQS” value came to 0.0457, the “area with substrate ENGYFQS” value was found to be 0.0641, the “area with substrate ENHYFQS” value was found to be 0.0641 and the “area with substrate ENIYFQS” value turned out to be 0.0885. Moreover, the “area with substrate ENKYFQS” value amounted to 0.0647, the “area with substrate ENNYFQS” value is 0.0586, the “area with substrate ENPYFQS” value was 0.0544 and the “area with substrate ENQYFQS” value came to 0.0613. The “area with substrate ENRYFQS” value came out at 0.076, the “area with substrate ENSYFQS” value was determined as 0.0598, the “area with substrate ENTYFQS” value stood at 0.0751 and the “area with substrate ENVYFQS” value was determined as 0.0855. In addition, the “area with substrate ENYYFQS” value was determined as 0.058.

As to MGESLQKGPRDYNPISSSICHLTNESDGHTTSLYGIGFGPFIITNKHLFRRNNGTLVVQSLHGVFKVKDTTTLQQHLVDGRDMIIIRMPKDFPPFPQKLKFREPQREERICLVTTNFQTKSMSSMVSDTSCTFPSGDGIFWKHWIQTKDGQCGSPLVSTRDGFIVGIHSASNFTNTNNYFTSVPKNFMELLTNQEAQQWVSGWRLNADSVLWGGHKVFMVKPEEPFQPVKEATQL [F6Q], the “area with substrate ENAYFQS” value was 0.0692, the “area with substrate ENDYFQS” value came out at 0.0655, the “area with substrate ENFYFQS” value was 0.0771 and the “area with substrate ENGYFQS” value turned out to be 0.0711. Further, the “area with substrate ENIYFQS” value is 0.112, the “area with substrate ENMYFQS” value was found to be 0.0712, the “area with substrate ENNYFQS” value amounted to 0.0807 and the “area with substrate ENPYFQS” value came to 0.0856. Moreover, the “area with substrate ENQYFQS” value is 0.067, the “area with substrate ENRYFQS” value worked out at 0.0593, the “area with substrate ENSYFQS” value was determined as 0.0599 and the “area with substrate ENTYFQS” value is 0.043. The “area with substrate ENVYFQS” value turned out to be 0.078.

As for MGESLVKGPRDYNPISSSICHLTNESDGHTTSLYGIGFGPFIITNKHLFRRNNGTLVVQSLHGVFKVKDTTTLQQHLVDGRDMIIIRMPKDFPPFPQKLKFREPQREERICLVTTNFQTKSMSSMVSDTSCTFPSGDGIFWKHWIQTKDGQCGSPLVSTRDGFIVGIHSASNFTNTNNYFTSVPKNFMELLTNQEAQQWVSGWRLNADSVLWGGHKVFMVKPEEPFQPVKEATQL [F6V], the “area with substrate ENAYFQS” value turned out to be 0.0588, the “area with substrate ENCYFQS” value is 0.0907, the “area with substrate ENDYFQS” value was 0.0482 and the “area with substrate ENGYFQS” value was determined as 0.0596. For the same variant, the “area with substrate ENMYFQS” value stood at 0.0845, the “area with substrate ENNYFQS” value turned out to be 0.0687, the “area with substrate ENRYFQS” value amounted to 0.0516 and the “area with substrate ENYYFQS” value worked out at 0.0664.

For the variant MGESLFKGPRNYNPISSSICHLTNESDGHTTSLYGIGFGPFIITNKHLFRRNNGTLVVQSLHGVFKVKDTTTLQQHLVDGRDMIIIRMPKDFPPFPQKLKFREPQREERICLVTTNFQTKSMSSMVSDTSCTFPSGDGIFWKHWIQTKDGQCGSPLVSTRDGFIVGIHSASNFTNTNNYFTSVPKNFMELLTNQEAQQWVSGWRLNADSVLWGGHKVFMVKPEEPFQPVKEATQL [D11N], the “area with substrate ENAYFQS” value was determined as 0.0758, the “area with substrate ENCYFQS” value came out at 0.0675, the “area with substrate ENDYFQS” value worked out at 0.0664 and the “area with substrate ENEYFQS” value was 0.067. For the same variant, the “area with substrate ENFYFQS” value is 0.0613, the “area with substrate ENGYFQS” value worked out at 0.0706, the “area with substrate ENIYFQS” value stood at 0.102 and the “area with substrate ENKYFQS” value amounted to 0.062. The “area with substrate ENMYFQS” value is 0.0799, the “area with substrate ENNYFQS” value was 0.0647, the “area with substrate ENPYFQS” value came out at 0.0612 and the “area with substrate ENQYFQS” value amounted to 0.0657. The “area with substrate ENRYFQS” value was found to be 0.085, the “area with substrate ENSYFQS” value was determined as 0.0564, the “area with substrate ENTYFQS” value was found to be 0.0624 and the “area with substrate ENVYFQS” value came out at 0.0814. The “area with substrate ENYYFQS” value is 0.0618.
